# Data taken from the supplement of paper PMC3334620.
# In all, about 33,000 sequences were measured (“E-score (-0.5 to 0.5)”: median about -0.043, highest 2% from about 0.37 on). The list shows a part of the results.
# Molecular target: T1, Upc2 (UniProt Q12151)
# T1 sequence: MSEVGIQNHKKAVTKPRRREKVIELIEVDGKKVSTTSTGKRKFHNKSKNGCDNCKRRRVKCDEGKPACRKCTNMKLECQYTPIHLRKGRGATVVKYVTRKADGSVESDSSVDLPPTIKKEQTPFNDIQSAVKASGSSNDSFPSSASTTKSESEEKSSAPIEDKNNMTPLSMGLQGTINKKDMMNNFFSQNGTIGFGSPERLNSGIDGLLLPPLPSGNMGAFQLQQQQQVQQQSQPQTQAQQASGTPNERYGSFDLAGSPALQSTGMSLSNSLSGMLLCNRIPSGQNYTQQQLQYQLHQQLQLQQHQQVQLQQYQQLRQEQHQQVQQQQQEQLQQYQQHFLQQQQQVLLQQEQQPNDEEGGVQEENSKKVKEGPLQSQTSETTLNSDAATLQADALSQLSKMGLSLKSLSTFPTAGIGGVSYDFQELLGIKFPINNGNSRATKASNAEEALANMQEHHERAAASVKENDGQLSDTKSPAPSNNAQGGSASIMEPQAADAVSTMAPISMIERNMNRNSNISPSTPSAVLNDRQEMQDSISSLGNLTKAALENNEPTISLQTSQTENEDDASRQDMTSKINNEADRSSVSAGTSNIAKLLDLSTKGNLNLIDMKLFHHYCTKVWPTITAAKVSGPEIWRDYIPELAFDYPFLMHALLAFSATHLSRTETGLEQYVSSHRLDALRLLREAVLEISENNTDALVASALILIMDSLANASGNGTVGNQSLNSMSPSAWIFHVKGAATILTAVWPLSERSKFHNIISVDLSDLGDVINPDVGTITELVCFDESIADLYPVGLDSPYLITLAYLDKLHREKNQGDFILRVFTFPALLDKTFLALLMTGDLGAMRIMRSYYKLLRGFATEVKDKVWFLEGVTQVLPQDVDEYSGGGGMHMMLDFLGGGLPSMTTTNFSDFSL
# Assay: PBM E-score (8-mer binding enrichment) (E-score (-0.5 to 0.5)); higher = stronger / more preferred TF binding; most listed sequences are background and not binding sites
# Details: protein concentration: 200 nM; construct: GST-full length
# Experimental: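 Universal 'all 10-mer' protein binding microarrays (Agilent AMADID 015681) probed with GST-tagged S. cerevisiae TFs (full-length or DBD) made by in vitro transcription/translation (PURExpress), about 100-200 nM. Bound TF was detected with fluorescent anti-GST. Each ungapped 8-mer (which stands for itself and its reverse complement) is scored by the PBM enrichment score (E-score), a modified Wilcoxon-Mann-Whitney statistic from -0.5 to +0.5, computed with the Universal PBM Analysis Suite. Scale: above 0.35 generally sequence-specific binding.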
row,Sequence,PBM E-score
1,TATTACCA,0.0142
2,CTCCTAGC,-0.256
3,ACGAATAG,0.335
4,CCAGTAGG,-0.233
5,ACTCTCCG,0.0605
6,TCCCGCAA,-0.0767
7,CGTGACGA,0.0729
8,ACACTACA,0.0722
9,ACGGAGGC,0.0956
10,GGAGTTGA,0.00563
11,GATCACGC,-0.101
12,GGCGTTCA,0.0581
13,ACCTAAAA,0.107
14,ACCCACTG,-0.107
15,CAGTACCC,-0.0567
16,TCAGGACA,-0.0425
17,CGCGTCTC,0.123
18,CATCGCAC,0.12
19,GACCGTTA,0.118
20,GCGGTAGA,-0.0562
21,TATACAGA,0.236
22,CGCATACA,0.114
23,ACTCTTAT,0.144
24,CGGCGTTC,0.163
25,GCGGAATA,-0.0629

row,Sequence,PBM E-score
1,GCATGAAC,-0.00105
2,CAAGACGG,-0.255
3,ACCGAATA,0.0988
4,GTCCCGGA,0.0334
5,ACCATCGT,0.276
6,CAGATGGG,-0.318
7,CACCATGC,-0.295
8,GAGTTTTA,0.117
9,AGCACAAA,-0.0797
10,CCTAGTAG,-0.148
11,ATTGATAA,-0.149
12,CCCGACGA,0.0367
13,CCTGGTAA,-0.0883
14,GAGCTTTA,0.117
15,GCGGGACC,-0.18
16,TAGACGGA,-0.0125
17,AAGCTGCT,-0.179
18,ACACGTAG,-0.234
19,CCTCGAGA,-0.0146
20,ACCTCACT,-0.171
21,ACACATAA,0.104
22,CCCCTTAA,-0.267
23,TCTCGGCA,0.00444
24,AACGGGAG,0.201
25,TCACGCGA,0.103

row,Sequence,PBM E-score
1,GCACGCAC,-0.0969
2,AGGGGAGA,-0.126
3,AGTGTACA,-0.0815
4,TTTTAAAA,0.135
5,CGCAGTCC,0.0548
6,GAGGCTTA,-0.239
7,CTTCCAAC,-0.109
8,GTGGCTTA,-0.116
9,CGGTAGGC,-0.0982
10,CGTAGCAA,0.282
11,GTCAAGTA,-0.0363
12,AAAGAGTG,0.0172
13,CACTGCGC,-0.2
14,AGTAAAAG,0.168
15,GTCCACTA,-0.304
16,CGAAAGTC,0.0808
17,CAAAAGTG,-0.142
18,CGCTGTCC,0.146
19,GAGACTCC,-0.092
20,AGGAGAGA,-0.237
21,TGGAAGAA,-0.105
22,ATCATGCC,-0.154
23,ACTCTACC,0.018
24,GGTGGTAA,-0.0378
25,AACCCAGG,-0.155

row,Sequence,PBM E-score
1,AGTCGGTA,0.0632
2,ATTGCGAA,-0.145
3,GCGTGGAA,-0.0163
4,GTACAAAC,0.248
5,GGCATGTA,0.224
6,TATGGTAA,0.0759
7,ATAATTAG,-0.0986
8,ACCATGTG,-0.0548
9,TCCCATCA,-0.258
10,AAAGCGTC,-0.102
11,AGCCCGGC,-0.0461
12,AAAGTACT,0.0188
13,CCCACAGC,0.0191
14,CATCCACC,-0.1
15,GTAAGAAA,0.144
16,CCAGACCG,0.108
17,CATAACCA,0.0037
18,ATTAGTGA,-0.00456
19,GTGAGTCA,-0.222
20,AACGAGTC,0.414
21,AGCATTGG,-0.219
22,AGCCTCGC,0.103
23,ACATGATG,-0.247
24,AATTACGG,0.0727
25,ATAGAATC,0.0733

row,Sequence,PBM E-score
1,AATGAAAT,0.147
2,AACTCGGT,0.0753
3,TCTCTGAA,-0.158
4,GCTCTACC,-0.101
5,AAAAAGAA,-0.0172
6,AGTATCCC,0.0247
7,AACATTGT,0.0538
8,AACCCATA,0.176
9,GCTCCACC,-0.0776
10,ACCCCTCG,0.129
11,AGCTCAAC,-0.0394
12,AGTGACTG,-0.174
13,ACCGTCGG,0.0664
14,ATCGCCGG,-0.13
15,GTTTTTAA,0.102
16,AAAATCTA,-0.00788
17,AAACTCTA,-0.0759
18,CAGGTTAA,0.168
19,CTATGAGA,-0.221
20,AGTGCTGC,0.022
21,CAGTTATC,-0.128
22,AGCGGCCA,-0.256
23,CGATCCCC,0.0691
24,AAAATAGA,-0.00515
25,ATTCAGTC,-0.0361

row,Sequence,PBM E-score
1,AAATCACA,-0.0177
2,GATGCTAC,0.101
3,CCCGTGCC,-0.0508
4,ACGAGAGA,0.343
5,ATGATGGC,-0.228
6,AGCTACAA,-0.0549
7,CTGGAACA,0.00095
8,GCGCTGCA,-0.0902
9,GTCCCGCA,-0.212
10,CGCGCTGC,-0.0738
11,CCCGCTGC,-0.234
12,ACAGGGCA,-0.0786
13,GTCTTATA,0.251
14,GGTATTCA,-0.00633
15,CACCTGTC,-0.166
16,AGCACTCC,-0.182
17,CAGATAAG,-0.022
18,ACGCGAAA,0.24
19,CTCGATCA,0.0617
20,AGTTGATA,-0.0653
21,AGTCACTC,-0.141
22,GACTCACA,-0.167
23,CTGAACAG,-0.114
24,AGAGTCGA,-0.0797
25,CTGACGAA,-0.095

row,Sequence,PBM E-score
1,ATGGGATC,-0.151
2,CCCCACCA,-0.00292
3,GACGCTAA,0.00614
4,GCACTGCA,-0.0949
5,ATCTAGTC,-0.226
6,AAAACTGT,0.0766
7,AAACTTAC,0.101
8,AGCTAAAC,0.215
9,CGTCCTCC,-0.155
10,CGTTATGA,-0.104
11,CGGTCACG,0.0102
12,GCCGGCTA,-0.253
13,AGCAAACC,0.0163
14,ACGGTCCC,0.0813
15,AGGGCTAC,-0.113
16,AGCAGCTC,-0.169
17,ATGGGTCC,-0.164
18,CAGATCGC,0.0291
19,AGCGGGAG,-0.165
20,ATATCCCC,-0.284
21,GGGTCACC,-0.356
22,CGCTCATC,0.218
